Hit rate of the full screen: of about 200,000 compounds, about 10 (0.005%) were called active. The shares of active, inactive and inconclusive entries below differ from those in the screen. Calls follow the shape of the dose curve; as a rule, active = well fitted inhibition curve with a large enough effect; inconclusive = small, poorly fitted or top-dose-only effect, or effect the other way, or another doubt; inactive = no such curve, though single readings can be large or run the other way. Potencies of inconclusive entries are doubtful fits and often do not repeat.
molecular target: Lysosomal alpha-glucosidase (Homo sapiens) (UniProt P10253); assay: qHTS Assay for Inhibitors of Human alpha-Glucosidase as a Potential Chaperone Treatment of Pompe Disease; settings: purified human GAA, 4-MU-alpha-glucoside fluorescence; activity change, negative = inhibition: at 76.9 µM (top of the series) unless noted;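 as to activity change, negative = inhibition: plate controls were uninhibited enzyme wells for no effect and no-enzyme background for full effect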
How it was run: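 Read-out is 4-methylumbelliferone fluorescence (Ex 365/Em 440 nm) after NaOH/glycine stop at pH 10. Enzyme 4 nM, substrate 400 uM, pH 5.0 citrate buffer, 20 min room temperature; AC50 from Hill-equation concentration-response.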
Potency is read from the fitted curve at half-maximal effect; tags tell the direction and shape of the fitted curve.

Potency, inconclusive:
COC(=O)c1ccc(NC(=O)CSCc2ccccc2)cc1 50.1 µM [inhibitor, single point], COc1ccc(CCNC(=O)CSc2ncn[nH]2)cc1 11.2 µM [inhibitor, single point], Cc1nn(C)c(Cl)c1S(=O)(=O)N[C@@H](c1ccccc1)[C@]1(C)C[C@H]1[C@@H](C)C(=O)Nc1ccc2ccccc2c1 10 µM [inhibitor, partial curve, poor fit], Cc1csc(NC(=O)c2cnccn2)n1 56.2 µM [inhibitor, single point], CCOCCCNC(=O)C1CCN(C(=O)Nc2ccc(Cl)cc2)CC1 50.1 µM [inhibitor, single point], Nc1c(C(=O)NCc2ccco2)c2nc3ccccc3nc2n1CCc1ccccc1F 31.6 µM [activator, partial curve], O=C(N/N=C/C=C/c1ccc([N+](=O)[O-])cc1)C1COc2ccccc2O1 (stereo not given) 50.1 µM [inhibitor, single point], COCCNC(=O)c1cc2c(=O)n3cccc(C)c3nc2n(Cc2ccncc2)c1=N 15.8 µM [activator, partial curve, poor fit], COC(=O)[C@@H]1CCCN1Cc1c(C(=O)N2CCOCC2)nc2c(C)cccn12 11.2 µM [inhibitor, single point], Cc1ccc(C)n1-c1nccc(-c2ccco2)n1 22.4 µM [activator, partial curve], Cc1cc(=O)oc2cc(N3C(=O)CC(Cc4ccccc4)C3=O)ccc12 (stereo not given) 44.7 µM [activator, partial curve], CCCOc1c(Br)cc(C2C3=C(CCCC3=O)N(CC)C3=C2C(=O)CCC3)cc1OC 31.6 µM [activator, partial curve], Cc1ccc(CCNC(=O)C2CCC(=O)N2C(C)C)cc1 (stereo not given) 56.2 µM [inhibitor, single point], CCn1nnnc1NCc1ccc(OCc2ccc(F)cc2Cl)c(OC)c1 50.1 µM [inhibitor, single point], CCOc1ccc2[nH]c(=O)c(CN(CC3COCCO3)C(=O)C3CC3)cc2c1 (stereo not given) 28.2 µM [activator, partial curve], c1ccc2c(c1)nc(CN1CCOCC1)n1c3ccccc3nc21 6.31 µM [inhibitor, single point], COc1ccc(Cl)cc1NC(=O)CN(C)CC(=O)Nc1ccccc1C(F)(F)F 12.6 µM [inhibitor, single point], CCCN1C(=O)c2cc(C(=O)NC3CCCC3)ccc2C1O (stereo not given) 56.2 µM [inhibitor, single point], CCOC(=O)CSc1nc2c(sc(=S)n2-c2ccccc2OC)c(=O)n1Cc1ccco1 0.178 µM [inhibitor, full curve, poor fit], COc1ccc(CNC(NC(=O)c2ccccc2)(C(F)(F)F)C(F)(F)F)cc1 44.7 µM [inhibitor, partial curve], O=C(Nc1cccc2cccnc12)c1ccc2c(c1)OCCO2 31.6 µM [inhibitor, single point], CCCOc1cccc(-c2cc(C(=O)NN)c3ccccc3n2)c1 56.2 µM [inhibitor, single point], O=[n+]1c2c(n([O-])c3cc(F)c(N4CCCC4)cc31)CCCC2 5.62 µM [inhibitor, single point], Cc1ccccc1C(=O)NC(CC(C)C)C(=O)NN1C(=O)c2ccccc2C1=O (stereo not given) 3.98 µM [inhibitor, partial curve], COc1ccc(NC(=O)CC2COc3ccccc3O2)c(OC)c1 (stereo not given) 28.2 µM [inhibitor, partial curve], CN(C)S(=O)(=O)c1ccc(NC(=O)COc2ncnc3sccc23)cc1 11.2 µM [inhibitor, partial curve, poor fit], CCC(C)(C)C1CCC(=NNC(=S)Nc2cccnc2)CC1 (stereo not given) 0.178 µM [inhibitor, full curve, poor fit], O=C(Nc1sc2c(c1C(=O)N1CCOCC1)CCCCC2)c1cccnc1 12.6 µM [inhibitor, single point], COC(=O)C1=CN(C)C=C(C(=O)OC)C1c1ccccc1Cl 31.6 µM [activator, partial curve], Cc1ccccc1-n1cnc2c(sc3nc(N4CCOCC4)c4c(c32)CCCC4)c1=O 50.1 µM [activator, single point], O=C1CC(c2ccc(S(=O)(=O)NCc3ccncc3)cc2)CN1 (stereo not given) 56.2 µM [inhibitor, single point], Fc1cc(F)cc(NC(=S)Nc2ccccc2N2CCOCC2)c1 39.8 µM [inhibitor, partial curve], COc1cc(C(=O)Nc2ccc(Cl)c(C(F)(F)F)c2)cc(OC)c1OC 50.1 µM [inhibitor, partial curve, poor fit], Cc1nnc(SCC(=O)NC(C)c2ccccc2)[nH]c1=O (stereo not given) 56.2 µM [inhibitor, single point], CC(=O)Oc1ccc(-c2cccc(C(=O)O)c2)cc1 50.1 µM [inhibitor, single point], Cc1onc(-c2c(Cl)cccc2Cl)c1C(=O)c1ccccc1 1 µM [inhibitor, full curve], CCn1cc(/C=N\NC(=O)Cc2ccc(Cl)cc2)cn1 2.51 µM [inhibitor, full curve], CCCCc1cc(=O)oc2c(CN3CCCC3)c(O)c(Cl)cc12 31.6 µM [activator, partial curve], COc1ccc(-n2c(=O)cc(N3CCN(c4ccccc4F)CC3)[nH]c2=O)cc1 8.91 µM [inhibitor, partial curve, poor fit], Cc1ccc(S(=O)(=O)c2ccc(C)cc2)cc1 56.2 µM [inhibitor, single point], NC(=O)N/N=C/c1cc(Br)ccc1OCC(=O)NCc1ccccc1 5.01 µM [inhibitor, partial curve], CC1=C(C#N)C(c2cccnc2)C2=C(CC(c3ccc(Cl)cc3)CC2=O)N1 (stereo not given) 31.6 µM [activator, single point], COc1ccc(N2C(=O)CC(Nc3ccc(N4CCOCC4)cc3)C2=O)c(OC)c1 (stereo not given) 56.2 µM [inhibitor, single point], CCOC(=O)c1cc(-c2ccccc2)nc2c1c(C)nn2-c1ccccn1 17.8 µM [activator, partial curve], Cc1c(S(=O)(=O)Nc2ccc3c(c2)OCCO3)cnn1C 12.6 µM [inhibitor, single point], CCC(C)NC(=O)CSC1=Nc2ccccc2C2=NC(CC(=O)NCc3ccc(F)cc3)C(=O)N12 (stereo not given) 56.2 µM [activator, single point], COc1cc2c(cc1OC)CN(C(=O)c1cccs1)CC2 50.1 µM [inhibitor, single point]

Potency, inactive:
O=C(/C=C/c1ccc(Cl)cc1)Nc1ccccc1N1CCOCC1, CN(C)c1c(N)c(=O)oc2ccccc12, O=[N+]([O-])C1=CC=C2C(=NC3(CCCCC3)N2O)C1=NCCO, OCCNc1nc(Nc2ccccc2)nc(Nc2ccccc2)n1

Activity change, negative = inhibition, inconclusive:
Cc1cccc(NCC(=O)N/N=C/c2ccc(Br)cc2)c1 18.6% [activator], O=C(NCCc1ccccc1)c1noc2c1CCc1ccccc1-2 -15.3% [inhibitor], Clc1ccc(Cn2cccc2C2=NCCO2)cc1 -15.4% [inhibitor], Cc1nnc(NC(=O)CSc2nc3c(c(=O)n2CCc2ccccc2)SC(C)C3)s1 (stereo not given) -16.2% [inhibitor], CCN(CC)c1ccc(C(=O)N/N=C/c2ccc(N3CCOCC3)cc2)cc1 27% [activator], O=C(c1ccccc1)c1cc2ccc(O)cc2oc1=O -17.7% [inhibitor], NC(=O)CSc1nnc(-c2ccncc2)o1 15.5% [activator], Cc1ccc(Oc2ncnc(N)c2[N+](=O)[O-])cc1C 6.47% [activator], CC(C)(/C=N/NC(=O)CSCc1ccc(Cl)cc1)CCC#N 8.32% [activator], Cn1cc(CCC(=O)N2CCCC(CCC(=O)NCc3ccccc3F)C2)cn1 (stereo not given) 12.8% [activator], COc1cc(OC)cc(C(=O)N[C@H](C(=O)OCC(=O)Nc2cccc(F)c2)C(C)C)c1 -15.3% [inhibitor], Cc1cccc(C(=O)N/N=C2/SCC(=O)N2Cc2ccccc2)c1 20.8% [activator], O=[N+]([O-])c1ccc2nc(CCCO)[nH]c2c1 17.3% [activator], O=C(COC(=O)c1ccncc1)Nc1cc(Cl)c(Cl)cc1Cl 21.1% [activator]

Source: PubChem BioAssay AID1466 (National Center for Advancing Translational Sciences (NCATS), 2008)
